Source: PubChem BioAssay AID1240 (Sanford-Burnham Center for Chemical Genomics, 2008)
Hit rate of the full screen: of about 50,000 compounds, about 800 (1.6%) showed an effect of 50% or more. This is one part of the list.

Target: Bcl-2-like protein 10 (Homo sapiens) (UniProt Q9HD36)
Experiment: TR3 peptide-Bcl-B binding displacers, biochemical primary FP assay, phenotype converters (AID 1240);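 also: 0% = Bcl-B with tracer peptide and DMSO and 100% = tracer peptide lacking Bcl-B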
Conditions: GST-Bcl-B / FITC-TR3 peptide fluorescence polarization; stronger effect = higher value; compound at 3.75 mg/L

UniProt Q9HD36, sequence (Q9HD36 whole entry, looked up): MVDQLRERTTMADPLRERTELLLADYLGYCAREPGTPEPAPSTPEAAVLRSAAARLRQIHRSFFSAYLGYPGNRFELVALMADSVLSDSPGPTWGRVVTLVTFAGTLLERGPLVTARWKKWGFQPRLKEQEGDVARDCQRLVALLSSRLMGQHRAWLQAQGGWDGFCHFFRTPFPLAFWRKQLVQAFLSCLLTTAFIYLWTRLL

Row | SMILES | displacement [%]
1 | O=C(O)c1ccc2c(c1)C(=O)N(c1ccc(-c3nc4ccccc4c(=O)o3)cc1)C2=O | 1.6
2 | O=C(COc1ccc(I)cc1)Nc1ccc2c(c1)oc1ccccc12 | -26.6
3 | O=C(Nc1ccc(F)cc1)c1ccc([N+](=O)[O-])cc1 | 12.7
4 | O=c1cc(-c2ccccc2)[nH]n1-c1nc(-c2ccccc2)cc(-c2ccccc2O)n1 | 4.8
5 | Cc1ccc(/C=C2/NC(=S)NC2=O)s1 | 8
6 | CC(C)OC(=O)c1cnn2c(C(F)(F)F)cc(-c3ccc(F)cc3)nc12 | 10.9
7 | O=C(N/N=C/c1ccc(Br)cc1)C1CC(=O)N(c2ccc(F)cc2)C1 (stereo not drawn) | -9.8
8 | COc1ccc(OC)c(C2NC(=S)NC(C)=C2C(=O)Nc2cc(Cl)ccc2C)c1 (stereo not drawn) | 1.9
9 | COc1cc([N+](=O)[O-])cc(/C=C2\C(=O)NC(=O)N(c3ccc(Br)c(C)c3)C2=O)c1O | 7.2
10 | CC(C)CCN(CCN1C(=O)c2ccccc2C1=O)CCN1C(=O)c2ccccc2C1=O | 17.9
11 | Cc1ccc(N(C(=O)C(Cl)(Cl)Cl)C2C=CS(=O)(=O)C2)cc1 (stereo not drawn) | 15.1
12 | CC(=O)CC(=O)Nc1ccc(-c2ccc(NC(=O)CC(C)=O)c(C)c2)cc1C | 3.5
13 | Cc1cc(NC(=O)c2ccc(Br)cc2)ccc1NC(=O)c1ccccc1 | 4.3
14 | COc1ccc(NC(=O)Nc2ccccc2I)cc1OC | -25.9
15 | Cc1cccc(NC(=O)COc2c(C)cc(C)cc2C)c1 | 11
16 | CC(C)c1ccc(C2/C(=C(\O)c3ccccc3)C(=O)C(=O)N2c2cccnc2)cc1 (stereo not drawn) | 10.1
17 | COc1ccc(C/C(N)=N/OC(=O)c2ccc(Cl)cc2)cc1 | -6.7
18 | Cc1ccc(N2C(=O)C(Cl)=C(Nc3ccc(C)c(C)c3)C2=O)c(C)c1 | 7.7
19 | CC(NC(=O)CSC(=O)c1ccccc1)c1ccccc1 (stereo not drawn) | -2.9
20 | O=S(=O)(Nc1ccc2oc(-c3ccccc3F)nc2c1)c1ccccc1 | 1.3
21 | COc1ccccc1NC(=O)CC1S/C(=N\N=C(/C)c2ccc([N+](=O)[O-])cc2)NC1=O (stereo not drawn) | 3
22 | CC1=C(C(=O)OC(C)C)C(c2cc(Br)ccc2F)CC(=O)N1 (stereo not drawn) | -6

Row | SMILES | displacement [%]
23 | O=C(CSc1nnnn1-c1ccccc1)NC12CC3CC(CC(C3)C1)C2 | -25.5
24 | Cc1cc(/C=N/c2nc3ccc(Br)cc3n2C)c(O)c([N+](=O)[O-])c1 | -9.2
25 | CCc1ccccc1NC(=O)[C@H]1CC=CC[C@H]1C(=O)O | 13.6
26 | O=C(NCCCO)C(=O)NCc1ccccn1 | -4.1
27 | COc1ccccc1/C=N/Nc1cc(N2CCOCC2)nc(N2CCOCC2)n1 | 10.4
28 | CCCCOC(=O)C1=C(C)NC2=C(C(=O)CC(c3ccccc3)C2)C1c1ccc(O)c([N+](=O)[O-])c1 (stereo not drawn) | -7.4
29 | CCOC(=O)c1ccc(NC(=O)c2cc(Br)ccc2Cl)cc1 | -5.9
30 | CC(=O)N(C1=C(Cl)C(=O)c2ccccc2C1=O)c1ccc(Cl)cc1 | -5.3
31 | COc1cc(CN2CCN(C(=O)CC(C)C)CC2)cc(OC)c1 | -11
32 | CCCc1cc(=O)n2[nH]c(-c3ccc(C)cc3)c(C)c2n1 | 9.4
33 | COc1ccc(/C=C/C(=O)CC(=O)C(Cl)(Cl)Cl)cc1 | 12.7
34 | O=C(C1CCCO1)N1CCN(c2cccc(Cl)c2)CC1 (stereo not drawn) | 0.3
35 | Cc1c(NC(=O)Cc2ccccc2)c(=O)n(-c2ccccc2)n1C | -13.4
36 | O=C(c1cccnc1)N1CCN(C(=O)c2cccs2)CC1 | 33.6
37 | COC(=O)C1=C(C)NC(C)=C(C(=O)OC)C1c1ccc(Br)cc1 | -2.4
38 | CCOC(=O)c1c(N)sc(C(=O)Nc2ccc3c(c2)OCO3)c1C | 6.7
39 | O=[N+]([O-])c1ccccc1-c1nc(-c2ccccc2)c(-c2cccs2)[nH]1 | 0.8
40 | CCN=C1S/C(=C\c2ccc(I)o2)C(=O)N1CC | -19.5
41 | COc1ccc(C(C[N+](=O)[O-])c2c[nH]c3ccccc23)cc1 (stereo not drawn) | 31.9
42 | O=C(Nc1ccc(OC(F)(F)F)cc1)C1CCCN1S(=O)(=O)c1ccc(Cl)cc1 (stereo not drawn) | -6.1
43 | O=C(COc1ccc(Cl)cc1)Nc1ccc2c(c1)OCO2 | -3.5
44 | CC(C)c1ccccc1OCCCN1CCCCC1 | -1.2

Row | SMILES | displacement [%]
45 | O=C(C(c1ccccc1)c1ccccc1)N1CCC(Cc2ccccc2)CC1 | 0.5
46 | COc1ccc(/C=C2/Sc3ccccc3C2=O)cc1[N+](=O)[O-] | -5.3
47 | COc1ccccc1C(=O)Nc1ncn[nH]1 | 5.4
48 | O=C(COc1ccc(Cl)cc1Cl)OCc1ccccc1 | -9.2
49 | CCOC(=O)C1=NNC(C(=O)c2ccc(Cl)cc2)C1c1ccc(OC)cc1 (stereo not drawn) | -5.3
50 | COC(=O)C1=C(C)N(C)C(C)=C(C(=O)OC)C1c1ccc(OCc2ccccc2)cc1 | -3.9
51 | CCCC(=O)Nc1cccc(NC(=O)COc2ccc(Br)cc2)c1 | 1.6
52 | Cn1c(=N)n(CC(=O)c2cc(C(C)(C)C)c(O)c(C(C)(C)C)c2)c2ccccc21 | 8.5
53 | O=C(CN1C(=O)C(=O)c2ccccc21)c1ccc(Cl)cc1 | 3.2
54 | Cc1ccc(/C=C2/SC(=S)N(CCC(=O)N3c4ccccc4Sc4ccccc43)C2=O)cc1 | 10
55 | O=C(O)c1cccc(C(=O)Cc2ccccc2)c1 | -1.9
56 | C=CCC(O)(CC=C)c1cc(-c2ccccc2)nc2ccccc12 | 5.9
57 | COC(=O)C1=C(C)N=c2s/c(=C\c3ccc(F)cc3)c(=O)n2C1c1ccccc1 (stereo not drawn) | 12.6
58 | Cc1sc2nc(SCC(=O)NCCCN3CCOCC3)[nH]c(=O)c2c1C | -1.2
59 | CCC(C)c1ccc(NC(=O)/C=C/c2cccc([N+](=O)[O-])c2)c(O)c1 (stereo not drawn) | 7.6
60 | O=C(Nc1ccc(OCc2ccccc2)cc1)c1cncc(Br)c1 | 10.3
61 | Cc1cc(Br)ccc1OCC(=O)N1CCCCC1 | 3.8
62 | O=C(Nc1ccc(Cl)c(Cl)c1)c1cccc(F)c1 | -2.1
63 | O=C(CCC1CCCC1)N1CCN(C2CCCCC2)CC1 | -0.4
64 | Cc1ccc(NC(=O)CN(c2ccc(Oc3ccccc3)cc2)S(C)(=O)=O)cc1C | 5.9
65 | Cc1ccccc1C(=O)Nc1ccc(C(=O)Nc2nccs2)cc1 | -13.4
66 | CC1=CC(C)(C)N(C(=O)Nc2ccccc2)c2c(C)cc(C)cc21 | 3.9

Row | SMILES | displacement [%]
67 | O=C1OC(c2ccccc2)=N/C1=C/c1ccco1 | 0.3
68 | CCCCC(=O)N1c2c(C)cccc2C(Nc2ccccc2C)CC1C (stereo not drawn) | 4.7
69 | CCOC(=O)c1c(NC(=O)c2ccccc2C)sc2c1CC(C)(C)OC2 | -15.2
70 | CCc1ccc(NC(=O)CSc2nnc(C)s2)cc1 | -4.7
71 | CNC(=S)N(C)/N=C/c1c(Cl)cccc1[N+](=O)[O-] | 8.7
72 | CCOc1ccc(C2/C(=C(\O)c3ccc([N+](=O)[O-])cc3)C(=O)C(=O)N2CCCCCC(=O)O)cc1 (stereo not drawn) | 8.5
73 | CC1=C(C(=O)Nc2ccccc2)C(c2cccc(Br)c2)NC(=O)N1 (stereo not drawn) | 1.4
74 | Cc1cc(Cl)ccc1OC(=O)COc1ccc([N+](=O)[O-])cc1 | 2.1
75 | CC(=O)CC(=O)Nc1ccc(F)cc1F | 6.5
76 | CC1CCN(C(=O)CSc2nc3ccc([N+](=O)[O-])cc3s2)C(C)C1 (stereo not drawn) | 2.3
77 | CCOC(=O)C1=C(C)N=c2s/c(=C\c3cc(OC)ccc3OC)c(=O)n2C1c1cccc(OC)c1 (stereo not drawn) | 9.6
78 | CC(=O)Nc1cc(-c2ccc(Cl)cc2)[nH]n1 | 11
79 | O=C(N/N=C/c1ccc[nH]1)c1ccccc1[N+](=O)[O-] | -1.5
80 | O=C1CC(c2ccc(Cl)cc2)CC2=C1C(c1cc3c(cc1Cl)OCO3)Nc1ccccc1N2 (stereo not drawn) | -2.9
81 | CC(C)C(=O)NS(=O)(=O)c1ccc(NC(=O)c2ccccc2Cl)cc1 | 14.3
82 | CCc1ccc(NC(=O)CSc2nnc(SCC(=O)Nc3ccc(CC)cc3)s2)cc1 | 8
83 | COc1ccc(-c2nc(=S)c3c(n2CCCO)CCCC3)cc1 | -5.3
84 | CN1C(=O)C(=Cc2cc([N+](=O)[O-])cc(Br)c2O)C(=O)N(C)C1=O | 16.5
85 | Cc1onc(-c2ccccc2Cl)c1C(=O)Nc1ccc(O)c(C(=O)O)c1 | 6.8
86 | CS(=O)(=O)N(CC(=O)O)c1ccc(F)cc1 | 6.7
87 | O=C(c1cccc([N+](=O)[O-])c1)c1ccc2c(c1)C(=O)N(c1ccc(Cl)cn1)C2=O | 0.7
88 | CCCN1C(=O)c2ccccc2NC1c1ccc(OC)c(COc2ccccc2F)c1 (stereo not drawn) | -1.5

Row | SMILES | displacement [%]
89 | CCOc1ccc(/C=C2\SC(=O)N(c3ccccc3)C2=O)cc1 | -1.9
90 | Cc1nc2cc(-c3cccc(F)c3)[nH]n2c(=O)c1C | 12.1
91 | CCOc1ccc(/C=C2\N=C(c3ccccc3F)OC2=O)cc1 | 11
92 | CC1=C(C(=O)OC2CCCCC2)C(c2cccc3ccccc23)C2=C(CCCC2=O)N1 (stereo not drawn) | 1.2
93 | COC(=O)c1ccc(/C=C2\SC(=S)N(NC(=O)Cc3ccccc3)C2=O)cc1 | -6.3
94 | CCOc1ccc(NC(=O)COc2ccc(Br)cc2)cc1 | 1.8
95 | Cc1cc(=O)oc2c1c(C)nn2-c1ccc(Br)cc1 | 2.1
96 | COc1ccc(/C=C2\SC(=S)N(CC(C)C)C2=O)c(OC)c1 | 9.8
97 | COCCN1C(=O)C(=O)/C(=C(/O)c2ccccc2)C1c1ccc(Cl)cc1 (stereo not drawn) | 15.8
98 | CCOC(=O)C1C(=O)OC2(CCCCC2)C1C(=O)OCC (stereo not drawn) | -10.1
99 | CC(C)N1CN=C2SC(CO)(CO)C(=O)N2C1 | 9.8
100 | COc1cc(CN2CCN(Cc3ccc(OC)c(OC)c3OC)CC2)cc(OC)c1O | -12
101 | Cc1ccc(C(=O)NC(=S)NCCCN2CCOCC2)cc1 | -8.5
102 | Cc1ncsc1CCOC(=O)C12CC3CC(CC(C)(C3)C1)C2 | 8.9
103 | COc1ccc(C(=O)Nc2cc([N+](=O)[O-])ccc2C)cc1OC | -2.9
104 | CC1CCN(CCC(=O)N/N=C/c2ccc(N(C)C)cc2)CC1 | -10.2
105 | COc1ccc(-c2nnc(NC(=O)c3ccccc3OC)s2)cc1OC | 25
106 | CCN(CC)c1ccc(C(=O)Nc2nccs2)cc1 | 8.3
107 | O=C1CC(SC(=NCCc2ccccc2)Nc2ccc(F)cc2)C(=O)N1c1ccc(F)cc1 (stereo not drawn) | -7.4
108 | Cc1ccc(N2CCN(C(=S)c3ccc(-c4cccc([N+](=O)[O-])c4)o3)CC2)cc1 | -6.1
